Whole data set: some 2,300 sequences, median “median log2 fold change of GCK-ALFA target abundance (FLAG IP / Myc IP barcode read proportion)” near 0.095, cut for the lowest 2% near -0.47. The list shows a part of the results.
B1: LC3A_free_8_2506 (protein)
chain: MREEVRRAAVEGLDRLEEELVAKAKELGLSRLDILELELEIGSVIAEIHSLDDASPEEILAATREGLDRVIALAAELSPELAALARRLGAEILAELEALL
B2: LC3A_3_1509 (protein)
chain: MEELLEEARELLEKFGASEEVIEKFLEALRLLLERGYEEAAKTLIELLKKGKDWSNEVLLAFAEDVLELLETKDLSEEELIEEIKKIFEIADNDQEIEEL
B3: LC3A_28_1024 (protein)
chain: SKAEKLVEEARKKAEEQKAKGEPIYIEISVDGSTTLEDAKLIVEGIEEIAEEFKDEKGVAILIDVSASVSQEVIDLLAKGAEEIEKKYPNVSVIIALEER
B4: LC3A_free_8_2457 (protein)
chain: DKDKLVTAISKLYDEFEEKVKKEMEKLGLSQSDINYISVLIGEAEMAVRDTAIDDPEKTLAVAKEEFEKIIEEAKKLSEELAEFVKKLAEEVLKKIEELL
B5: LC3A_free_39_2236 (protein)
chain: SEEEIEKLIKEIAEEGGVDYNYVKEKMEEIQKIGGLSEEQMLELVKELLKAVKEGADAKEILDEILKLTKELKEKGLSPEEILEELLEKIRDYRNLVPLD
B6: LC3A_3_1577 (protein)
chain: SEARIAEAEARLRAAGLSEEVIARAREVLEALLARGDEETAELVVEGLLELADAPTELLLAALDEVLAVARDESLTPEERLARVREILATAKAEAEIIEL
B7: LC3A_45_1999 (protein)
chain: MWRITVDLLGPKEKVEKAVKLILEKVEEFSKETGIKIEVDEEKAKKSFEASKDEEEVFVEIEITIDGNKEDADALVQRLDEVLEEVGPGLASIISVEEIE
B8: LC3A_28_875 (protein)
chain: SAVDARLAAVRAEGEAQAAEGEDIVLEVTVDASMSLAEAVELMRRVLALARELVAETGLKVTIVVDFDGSQETLDALLALADAAEAEDPKITVIFAISEE
B9: LC3A_free_0_2102 (protein)
chain: MLVVGEVLAVSREPVSEEKEKEFEEKVKELAKEVSEKTGAEVKVEFKRIDGHLVVTITIKAEGVSIEEMDEIVNEVADRVEEIAKELGIEVTTYVSIEEV
B10: LC3A_23_598 (protein)
chain: MYKVELIVSLIGEEEEIKKKAEKLKKEIEKILEKYKDKIISYKINVSFEKLEDGKTYLEIEVEIIIEDDEEVAEEIAEELTDAADKILPDGVISVEVEKL
B11: LC3A_28_745 (protein)
chain: MTIEEQIAEAIEEAKKAAEKGESTVIELTVPGTANEADIDKLIEGMEKIAEILKDVKDQAIIINIDGKLDPEYQKRIGEKAEEIEKKYPNVTVIIALDEE
B12: LC3A_28_1250 (protein)
chain: SAVEEQIAAARAEVEAAVAEGKEALVTLTVTKESDEEDIEKIIEAMYEIAELGKTLPSLTIIVDVERGVKQEHIDKLIDAGEEIEEKYPNVTVIIALEEE
B13: LC3A_6_2059 (protein)
chain: KTVTVVVDILLKEEKLEEGKAKAEEAFKKAVEKLKAKAKELGKKLLNAKLEVGEDGLHLTITFEAEYHPELEKLMSELADEIVEELEPYALASMISIEVN
B14: LC3A_3_1847 (protein)
chain: MEKIKEEALKLLEELGRSEEVKKAVEELLEALEERGYLKAAEKLLEKLKELKDVSDEILLAMLEEILRAVTEENLSEEETIKLIEEEAETAKNENEIEEL
B15: LC3A_147_428 (protein)
chain: VRAEVDIDILVKNAEEEVKEAFKKLEEELKKKGYKVELKIEEEKLENGETYIKVRVTVEAETREEAEEAANLIIDKVEELEEKLKDKIKGYIISVEISEL
B16: LC3A_free_46_2316 (protein)
chain: YIGNISVDIYGVDKEKAEELVKEIEEKIKEIAKKYGLEIEIKVEIEENEDGTTLVFIDITLKGEDKEKLEEAVNEIIKEIDEIAEKYGATAVISYEIEEE
B17: LC3A_free_26_2140 (protein)
chain: SDFVDLGLLDRAADLAEEIAKLLKELGEKYEKLAKKAEEIKKLILTGRLEDLEEALKLAEELIKELEKLKKEDPEKIEKLIKLAKELKELLKEQIEIIKS
B18: LC3A_28_916 (protein)
chain: SAVEEQTKKAIAEAKEAAAKGEPAVVTLNIDHEDVEEAAKLAKEALDKLAEVAKKLKGVTIVVDVPAHNLDAVTAEADKKQEELDKVNPSNHIIVALEEP
B19: LC3A_3_1563 (protein)
chain: MEELIKKLLEELKKAGASEEVLEAVRKAAEALKERGYEEALKVFAEEMRELLHLPDEYLLEFAEEVLEYVETEDLDEEEVIEKIKEIARTVRNDAEIIEL

Biological target: MAP1LC3A, Q9H492
Test: median log2 fold change of GCK-ALFA target abundance (FLAG IP / Myc IP barcode read proportion) (log2 ratio); each designed protein is fused to an ALFA-tag nanobody in HEK293 cells to bring the named protein to FLAG-tagged glucokinase (GCK); Myc marks an untargeted standard; higher = target protein stabilised (more abundant)
Settings: target protein: 3xFLAG-MCP-GCK-ALFA reporter; HEK293 landing pad (RPLP)
Method in brief: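 Sequencing of reverse-transcribed, amplified circular RNA barcodes from anti-FLAG and anti-Myc immunoprecipitates provided the readout for an ALFA-nanobody-fused binder library recombined into HEK293 landing-pad cells. Those cells were induced with 2 μg mL^−1 doxycycline, transfected with a plasmid expressing a FLAG-tagged target and a Myc-tagged standard, and lysed after 48 h. Target abundance is the per-binder median log2 ratio of FLAG to Myc barcode read proportions. Only barcodes at a proportion of ≥10^−7 in both replicates and binders with ≥3 barcodes per replicate were kept, with a 10^−6 pseudocount added before the two replicates were pooled.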

| Binder | median log2 fold change |
| --- | --- |
| B1 | -0.0254 |
| B2 | 0.0569 |
| B3 | 0.019 |
| B4 | 0.413 |
| B5 | 0.299 |
| B6 | 0.268 |
| B7 | 0.113 |
| B8 | -0.064 |
| B9 | -0.0817 |
| B10 | -0.0746 |
| B11 | 0.295 |
| B12 | 0.155 |
| B13 | 0.164 |
| B14 | 0.12 |
| B15 | 0.295 |
| B16 | -0.0193 |
| B17 | 0.381 |
| B18 | 0.256 |
| B19 | 0.0727 |
